In a collection of fitness landscapes (doi:10.1126/science.1257360) one finds enrichment ratio data, which are given here for 153 variants.

This is one part of the list.

First the molecules themselves.
B1: PhoQ; a variant is named by its letters at X, in order, P23837 (parent)
chain: MKKLLRLFFPLSLRVRFLLATAAVVLVLSLAYGMVALIGYSVSFDKTTFRLLRGESNLFYTLAKWENNKLHVELPENIDKQSPTMTLIYDENGQLLWAQRDVPWLMKMIQPDWLKSNGFHEIEADVNDTSLLLSGDHSIQQQLQEVREDDDDAEMTHSVAVNVYPATSRMPKLTIVVVDTIPVELKSSYMVWSWFIYVLSANLLLVIPLLWVAAWWSLRPIEALAKEVRELEEHNRELLNPATTRELTSLVRNLNRLLKSERERYDKYRTTLTDLTHSLKTPLXXLQXXLRSLRSEKMSVSDAEPVMLEQISRISQQIGYYLHRASMRGGTLLSRELHPVAPLLDNLTSALNKVYQRKGVNISLDISPEISFVGEQNDFVEVMGNVLDNACKYCLEFVEISARQTDEHLYIVVEDDGPGIPLSKREVIFDRGQRVDTLRPGQGVGLAVAREITEQYEGKIVAGESMLGGARMEVIFGRQHSAPKDE

This experiment covers variants of B1. The experiment can be described thus: enrichment ratio after two sorts for PhoP signalling (ratio (wild type AVST 3.29)); higher = more functional. The following applies: with PhoP (E. coli).
As to DAKA, the enrichment ratio is at most 0.25.

Take PLKY: the enrichment ratio is at most 0.25.

For FSYR, the enrichment ratio was at most 0.25.

WQHK: the enrichment ratio was at most 0.25.

Take VCWN: the enrichment ratio was at most 0.25.

Turning to DTCQ, the enrichment ratio was at most 0.25.

Turning to GAVY, the enrichment ratio is at most 0.25.

TAIY: the enrichment ratio was at most 0.25.

Consider RYPL, for which the enrichment ratio was at most 0.25.

Consider KQEF, for which the enrichment ratio is at most 0.25.

As for NWLY, the enrichment ratio is at most 0.25.

Turning to VAIV, the enrichment ratio is at most 0.25.

Turning to DQIY, the enrichment ratio is at most 0.25.

Regarding YDIN, the enrichment ratio is at most 0.25.

Consider NNES, for which the enrichment ratio was at most 0.25.

On to QPGW, for which the enrichment ratio was at most 0.25.

SEDN: the enrichment ratio is at most 0.25.

In the case of THWE, the enrichment ratio is at most 0.25.

In the case of NLDY, the enrichment ratio was at most 0.25.

YVNH: the enrichment ratio is 0.333.

In the case of RCMF, the enrichment ratio is at most 0.25.

Consider SAWQ, for which the enrichment ratio came to 3.7.

On to LWGL, for which the enrichment ratio was at most 0.25.

Regarding GESP, the enrichment ratio is at most 0.25.

Take KHMF: the enrichment ratio is at most 0.25.

As for PDVS, the enrichment ratio was at most 0.25.

GTFH: the enrichment ratio was at most 0.25.

With FPLE, the enrichment ratio is at most 0.25.

For RACA, the enrichment ratio is at most 0.25.

For the variant NKHW, the enrichment ratio was at most 0.25.

As to LTYS, the enrichment ratio was at most 0.25.

On to KMPQ, for which the enrichment ratio was at most 0.25.

In the case of NSQR, the enrichment ratio was at most 0.25.

With VVTQ, the enrichment ratio was at most 0.25.

As to SRET, the enrichment ratio is at most 0.25.

As for LMCP, the enrichment ratio is at most 0.25.

As to KKGD, the enrichment ratio was at most 0.25.

As to NDMA, the enrichment ratio is at most 0.25.

For VNQN, the enrichment ratio was at most 0.25.

With GMGD, the enrichment ratio is at most 0.25.

Regarding HGCV, the enrichment ratio came to 1.93.

Turning to LNTS, the enrichment ratio is at most 0.25.

As for GHHN, the enrichment ratio is at most 0.25.

On to FLRQ, for which the enrichment ratio was at most 0.25.

In the case of CYLS, the enrichment ratio is at most 0.25.

Regarding RMFS, the enrichment ratio was at most 0.25.

As to LLLD, the enrichment ratio is at most 0.25.

DILK: the enrichment ratio was at most 0.25.

For the variant VKHR, the enrichment ratio was at most 0.25.

On to QNQR, for which the enrichment ratio was at most 0.25.

As for MKPQ, the enrichment ratio is at most 0.25.

For the variant SAGC, the enrichment ratio was found to be 4.94.

With NHTA, the enrichment ratio is at most 0.25.

For the variant KCSR, the enrichment ratio was at most 0.25.

Regarding IILK, the enrichment ratio is at most 0.25.

As for DEWQ, the enrichment ratio is at most 0.25.

Take RKRL: the enrichment ratio is at most 0.25.

For the variant VDHI, the enrichment ratio was at most 0.25.

KAEV: the enrichment ratio was at most 0.25.

For EHKE, the enrichment ratio is at most 0.25.

Turning to FHLW, the enrichment ratio is at most 0.25.

Take HMFV: the enrichment ratio was at most 0.25.

Turning to PVIE, the enrichment ratio was at most 0.25.

Consider HQVR, for which the enrichment ratio is at most 0.25.

SQNL: the enrichment ratio is 1.02.

As to FTGD, the enrichment ratio is at most 0.25.

On to DGMM, for which the enrichment ratio was at most 0.25.

For the variant EHSY, the enrichment ratio is at most 0.25.

For the variant SDCR, the enrichment ratio is 2.09.

On to ALFQ, for which the enrichment ratio was at most 0.25.

Turning to VCIQ, the enrichment ratio was at most 0.25.

WMGT: the enrichment ratio is at most 0.25.

RKEY: the enrichment ratio is at most 0.25.

With GSVI, the enrichment ratio worked out at 4.91.

Take MMTR: the enrichment ratio is at most 0.25.

As for MGFQ, the enrichment ratio worked out at 5.15.

For the variant RLVM, the enrichment ratio is at most 0.25.

For IEPH, the enrichment ratio is at most 0.25.

Consider SAKH, for which the enrichment ratio is at most 0.25.

For the variant HRLL, the enrichment ratio is at most 0.25.

In the case of YWSQ, the enrichment ratio is at most 0.25.

For RIPD, the enrichment ratio was at most 0.25.

EVRM: the enrichment ratio is at most 0.25.

Take MCER: the enrichment ratio was at most 0.25.

For the variant ANYG, the enrichment ratio was at most 0.25.

With ELNK, the enrichment ratio is at most 0.25.

Regarding DWDM, the enrichment ratio was at most 0.25.

Consider NRPD, for which the enrichment ratio is at most 0.25.

For SLRD, the enrichment ratio is at most 0.25.

For CALS, the enrichment ratio is at most 0.25.

VDIF: the enrichment ratio is at most 0.25.

GAGI: the enrichment ratio was at most 0.25.

Take VIHP: the enrichment ratio is at most 0.25.

For VEAD, the enrichment ratio is at most 0.25.

In the case of RGFY, the enrichment ratio was at most 0.25.

FEFF: the enrichment ratio was at most 0.25.

With FKIN, the enrichment ratio was at most 0.25.

On to QIPG, for which the enrichment ratio is at most 0.25.

Consider HNLC, for which the enrichment ratio is at most 0.25.

Take YTWC: the enrichment ratio was at most 0.25.

Take DANI: the enrichment ratio is at most 0.25.

Take RQGQ: the enrichment ratio is at most 0.25.

Regarding IDRS, the enrichment ratio is at most 0.25.

PKHC: the enrichment ratio was at most 0.25.

For the variant ETGE, the enrichment ratio is at most 0.25.

Take RFKN: the enrichment ratio is at most 0.25.

On to RDWW, for which the enrichment ratio is at most 0.25.

Take LNAD: the enrichment ratio is at most 0.25.

For the variant RYNG, the enrichment ratio was at most 0.25.

For the variant FLWH, the enrichment ratio was at most 0.25.

NWHP: the enrichment ratio was at most 0.25.

As to SPQD, the enrichment ratio is at most 0.25.

On to IGYT, for which the enrichment ratio was at most 0.25.

As for MGVL, the enrichment ratio was 8.38.

In the case of THSC, the enrichment ratio worked out at 10.6.

For ENSM, the enrichment ratio was at most 0.25.

With ERSV, the enrichment ratio is at most 0.25.

SDYD: the enrichment ratio was at most 0.25.

Consider LKTG, for which the enrichment ratio was at most 0.25.

In the case of TVLY, the enrichment ratio is at most 0.25.

In the case of NQPL, the enrichment ratio was at most 0.25.

As for SHLC, the enrichment ratio was determined as 3.

With SVDG, the enrichment ratio was at most 0.25.

As for HRWR, the enrichment ratio is at most 0.25.

RFRS: the enrichment ratio was at most 0.25.

As for TKSS, the enrichment ratio came out at 7.82.

Consider MHLW, for which the enrichment ratio was at most 0.25.

Turning to DAEI, the enrichment ratio is at most 0.25.

As for PCSE, the enrichment ratio was at most 0.25.

Turning to TYKY, the enrichment ratio was at most 0.25.

Consider SSNR, for which the enrichment ratio is at most 0.25.

Regarding MYCT, the enrichment ratio was at most 0.25.

For the variant AQHV, the enrichment ratio is at most 0.25.

Take LVIL: the enrichment ratio is at most 0.25.

Turning to DFYV, the enrichment ratio is at most 0.25.

As for ALSV, the enrichment ratio came out at 8.37.

Take LKEI: the enrichment ratio was at most 0.25.

Consider IDLK, for which the enrichment ratio was at most 0.25.

As to GCVV, the enrichment ratio was at most 0.25.

Consider RNCY, for which the enrichment ratio was at most 0.25.

SHNI: the enrichment ratio came to 8.22.

Consider EYPS, for which the enrichment ratio is at most 0.25.

With QFVL, the enrichment ratio is at most 0.25.

Regarding FEFS, the enrichment ratio is at most 0.25.

Take YTSI: the enrichment ratio was at most 0.25.

For the variant LCAS, the enrichment ratio is at most 0.25.

In the case of NGGQ, the enrichment ratio was at most 0.25.

Take SMYY: the enrichment ratio was at most 0.25.

Turning to RFGM, the enrichment ratio was at most 0.25.

In the case of WQKR, the enrichment ratio was at most 0.25.

Regarding WMKP, the enrichment ratio was at most 0.25.

As for YCLT, the enrichment ratio turned out to be 3.35.

Regarding HHQH, the enrichment ratio is at most 0.25.
